Among the data in the RNAGym collection of RNA variant scans (doi:10.1093/nar/gkz1192) are self-cleavage values, retold here.

B1: CPEB3 Ribozyme (parent)
chain: UAACAGGGGGCCACAGCAGAAGCGUUCACGUCGCAGCCCCUGUCAGAUUCUGGUGAAUCUGCGAAUUCUGCUGUAUAUCUC

The source gives no read counts; variants with many changes may rest on few reads.

The data set covers variants of B1. Description: self-cleavage, relative activity (ratio to wild type); higher = more cleavage; in vitro, sequencing. In outline:
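For each CPEB3 ribozyme variant, relative activity is its cleaved/total read fraction divided by the unmutated ribozyme's. Barcoded error-prone PCR libraries were transcribed by T7 RNA polymerase (5 hours, 37°C) and held in DNase I for 15 min before an EDTA stop, with cleavage occurring throughout. Template-switching reverse transcription and Illumina sequencing were used to read the RNAs. A 5-read minimum applied, and results are the mean of three batches.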
A13U A21G U51A C68G U76C U80C: the self-cleavage worked out at 0.06.
To A13U A15U A45G belongs 0.63.
To A13U A18C U25C U43A A45G A56G belongs 0.19; to A13U A21G U60G U66C, 0.3.
Take A13U A20G A35G U72C: the self-cleavage was 1.19.
To A13U A21U A28C G53C belongs 0.07; to A13G U60C U80A, 0.47; to A13U A28U U48G, 0.23.
To A13U A18U A21C A45U U67A U72G A75U belongs 0.07; to A13U A21G U26C C32U U41A U54C U69C, 0.4.
In the case of A13G U54C U66C C68U U69C, the self-cleavage came out at 0.08.
To A13U A21G U41A U43C U66C U69C A77G belongs 0.01.
To A13U A18G U26C A35U C68U belongs 0.09; to A13U A18U U26A, 0.19; to A13G U43G A45G A57G, 0.
To A13G U49C U51G G63A A64G belongs 0.29; to A13U A28G G33A, 0.16.
For the variant A13G U54G U66C, the self-cleavage amounted to 0.17.
To A13U A20G C37A U58C U60C belongs 0.04; to A13G U43C U51C A56G U60C U69C U80A, 0.26; to A13U A18G U48C, 0.37.
As to A13U A15G A28U U54C A77G, the self-cleavage amounted to 0.64.
To A13U A20U A56G U66C U69C belongs 0.09.
To A13U A20G A64U G70C belongs 0.06; to A13U A15C A21G C34U A35G, 0.4.
To A13U A28U C62U A64G U67C belongs 0.1; to A13U A15G A20G U41A A45G U51C A57U, 0.
A13U A20C U54C U67C: the self-cleavage was found to be 0.06.
To A13U A28G U54C belongs 0.63; to A13U A20U U41C U69C, 0.13; to A13U A21G U25C A45G A77U, 0.84.
For the variant A13U A20U C32U U58C U60C U67C, the self-cleavage was found to be 0.06.
Take A13G U54A U58C: the self-cleavage is 0.55.
To A13U A20G U25C G61C A75U U80A belongs 0.25.
Turning to A13U A35G C62U U67C, the self-cleavage is 0.47.
To A13U A21G U26C U41A belongs 0.03; to A13U A21G A56G, 0.26; to A13U A21U G52U A56G U69A U78C, 0.11.
To A13U A18G A20U G36C C38U A65G belongs 0.19; to A13G U48C U51C C71G C81G, 0.41.
To A13U A20G U41A U49A A56U U80C belongs 0.05.
Turning to A13U A28G U60A, the self-cleavage stood at 0.15.
To A13U A21G U31A U67C belongs 0.06; to A13U A21G U60C U72C G73U, 0.19; to A13U A21G U25A U72A A77C, 0.03.
To A13U A21U U78C belongs 0.38.
To A13U A21G U41A A56U U58A U66C U78C belongs 0.06; to A13U A18G A47G, 0.36; to A13G U51A U72A, 0.57.
On to A13U A21U U31C C32U U60A, for which the self-cleavage amounted to 0.1.
To A13U A21G U51C U60C C71A belongs 0.08; to A13U A21G A35U, 0.12; to A13U A21G A35G, 0.97.
To A13U A21G G30A A35U A47U A56U A77G belongs 0.08; to A13U A28C U43A C62U A65G, 0.11; to A13G U51A U69G, 0.46.
To A13U A18C U31C A35G U43C A56G U80A belongs 0; to A13U A21U A57G U76C, 0.38.
Regarding A13G U51A A75U, the self-cleavage came to 1.02.
Take A13U A28G G52A C62A: the self-cleavage is 0.1.
To A13U A20G A21U A64G belongs 0.2.
As for A13U A18U U25G A64G U72C U76C, the self-cleavage was found to be 0.21.
To A13G U60C U69C U78C belongs 0.25; to A13U A15G U31C G42A U48C U51C, 0.06; to A13U A28G G52A A64G U76A U78C, 0.59.
For the variant A13U A15G A28U A56G A65U U69A U78A, the self-cleavage came out at 0.08.
To A13U A20G G22C A35U A64G belongs 0.44.
To A13U A15G U41C U51C U54C U78C belongs 0.38.
To A13U A18G U41A G52A A56G U60C U80G belongs 0.35.
For A13U A20G C27A A45U U66A U76C, the self-cleavage amounted to 0.06.
To A13U A15U A47G belongs 0.4.
Take A13G U51A A65U U66C: the self-cleavage was 0.18.
To A13U A15U A28G A35G U43C A56G belongs 0.51; to A13U A18G U58C U78C, 0.35; to A13U A18G A21G U41A U80A C81A, 0.
With A13U A35C U48C, the self-cleavage was 0.38.
To A13G U49A U58A U80C belongs 0.08.
To A13U A20G A45G A47G belongs 0.45; to A13U A20G U43C C59U U67C, 0.15.
To A13G U43C U60C U78C belongs 0.12.
As to A13U A18G A35G U72A, the self-cleavage came out at 0.24.
To A13G U78C C79U belongs 0.8; to A13U A21U U51C, 0.3.
